Experimental data: ChEMBL document CHEMBL4888484, “Replenishing the malaria drug discovery pipeline: Screening and hit evaluation of the MMV Hit Generation Library 1 (HGL1) against asexual blood stage Plasmodium falciparum ,using a nano luciferase reporter read-out” (2022)
In all, about 150,000 compounds went through this assay and about 540 (0.36%) showed an effect of 50% or more. The list shows a part of the results.

What follows are compounds tested on Plasmodium falciparum (assay: Primary screen in NF54 nanoGlo assay, in single point, at 2uM, 72h; a lower Z score goes with more inhibition). Details: timepoint 72 hour.
Type: functional, Erythrocyte

Structure (SMILES) | % Inhibition | Z score
CC1C(N2CCCC2)CCN1C(=O)CCc1ccc2c(c1)OCCO2 (configuration not stated) | 1% | -0.21
CC(C)Cc1nc(-c2cccc(-c3cn[nH]c3)c2)n(CCO)n1 | 0% | 0.02
CC(C)(NC(=O)c1cnc(-c2ncccn2)s1)c1nnn[nH]1 | 4% | -0.55
CC(=O)N1CCN(C[C@@H]2OC[C@H](NC(=O)c3ccccc3)[C@H]2O)CC1 | 0% | -0.02
N#CCCN(CC(F)(F)F)S(=O)(=O)c1cnn2ccccc12 | -6% | 1.14
Cc1cc(CN2Cc3c[nH]nc3[C@@H](C)C2)nc(C)n1 | -6% | 0.66
CN(C)S(=O)(=O)N[C@H]1CCOC[C@@H]1Oc1ccc(CO)cc1 | 1% | -0.12
COc1cccc(C(=O)N2CCN(C(=O)C[C@H](C)n3cccn3)CC2)c1 | -20% | 2.1
CC[C@@H](CO)N(Cc1cccnc1)C(=O)Cc1ncccc1C | -3% | 0.5
Cc1nn(C)c(C)c1CCCNC(=O)c1cnc2c(cnn2C)c1O | 25% | -2.84
CCCN1CCc2nc(-c3ccccc3)n(CC(=O)Nc3cc(C)ccc3OC)c(=O)c2C1 | -12% | 1.57
CC(C)Oc1cccc(C=Cc2nc(=O)cc[nH]2)c1 | -9% | 1.26
CC(=O)N1CCCC[C@H]1C1=CCCN(CCc2ccccn2)C1 | 2% | -0.4
Cc1nc2c(c(N[C@H]3C[C@@H](c4cc(=O)[nH]c(N(C)C)n4)C3)n1)CCC2 | 16% | -2.09
CC(=O)Nc1cc(C(=O)NCC2CCCCC2)cc2ncn(CCc3ccccn3)c12 | -8% | 1.03
COc1nn(C)cc1CNC(=O)[C@@H]1NCCOc2ccccc21 | -6% | 1.25
COc1cc(=O)n2c(c1C(=O)Nc1ccc(Cl)c(F)c1)CCCC2 | 0% | 0.05
CC1(C)[C@H](C(=O)Nc2ccc(OCc3ccccc3)cc2)CC[C@]1(C)C(=O)O | -12% | 1.62
c1ccc(CN2CCN(CCn3ccnc3C3CC3)CC2)cc1 | 2% | -0.31
COc1cc(C)c(S(=O)(=O)N(C)c2cnn(C)c2)cc1Cl | -2% | 0.29
O=C(c1cn(C[C@@H]2CC(F)(F)CN2C(=O)c2ccc3[nH]ccc3c2)nn1)N1CCOCC1 | 34% | -3.84
O=C(Nc1ccccc1F)N1CCC(n2cnc3ccccc3c2=O)CC1 | -5% | 0.62

Structure (SMILES) | % Inhibition | Z score
COc1cnc(-c2noc(C3(C#N)CCCCC3)n2)cn1 | 34% | -3.87
COc1ccccc1CC(=O)NC1CC1 | 0% | -0.04
CN(C)C1CCN(C2CCCN(CC(C)(C)C)C2=O)C1 (configuration not stated) | -6% | 0.83
COc1ccc(CN2Cc3nc[nH]c3C[C@H]2c2nc(-c3ccccn3)no2)cc1 | 23% | -2.72
COc1ccc(-c2cc(N3CCC[C@H](NC(=O)c4cnccn4)C3)[nH]n2)cc1 | -18% | 1.84
C[C@@H](C(=O)NCCc1ccc(S(N)(=O)=O)cc1)n1c2ccccc2c2cnn(C)c(=O)c21 | 2% | -0.37
CCC(CC)N(CCOC)S(=O)(=O)c1cc(Br)ccc1Br | -1% | 0.12
Cc1cnccc1CNC(=O)c1coc(COc2ccccc2)n1 | -9% | 1.26
CC(C)N1CCN(CCN(C)c2ccc([C@H]3CC[C@H](N(C)C(=O)c4ccc(Cl)cc4)CC3)cc2)CC1 | 3% | -0.39
CCn1cc(NC(=O)CC2CC3CCC2C3)cn1 (configuration not stated) | -6% | 1.05
C[C@@H](CCc1ccccc1)NC(=O)c1cc2c(Cl)ccc3c2n1CCO3 | 37% | -1.1
CC(C)N(CCO)Cc1c[nH]nc1-c1ccc(-c2ccccc2)cc1 | -3% | 0.5
CCOC(=O)C1CCC(N2CCN(C3CCC(C(C)C)CC3)CC2)CC1 (configuration not stated) | -3% | 0.43
C=CCn1ccnc1-c1ccccc1OCC | 4% | -0.73
COc1cc(Cl)c(C)cc1NC(=O)CN1CC[C@H](O)C1 | -5% | 0.93
CC(NC1CCN(c2ccc(Cl)c(F)c2)C1=O)C1CCN(CC(F)(F)F)CC1 (configuration not stated) | -4% | 0.48
CC(C)(C)OC(=O)c1c(NC(=O)[C@@H]2CCCO2)nc2n1CCCC2 | -15% | 2.89
CCN1CC2(CCN(C(=O)c3ccon3)CC2)C[C@@H](c2ccccc2)C1=O | -6% | 1.04
CCCCn1nc(CC)nc1Cn1cccnc1=O | -1% | 0.18
Nc1ccc(C(=O)N2CCCC[C@@H]2CCc2ccccn2)cn1 | 3% | -0.43
O=C(CN1CCC[C@H]1C(=O)OCc1ccccc1)Nc1nncs1 | -17% | 2.37
O=C(N[C@H]1[C@@H]2COC[C@@H]21)c1c(Cl)cncc1Cl | 1% | -0.15

Structure (SMILES) | % Inhibition | Z score
CCNC(=O)c1ccc(N(C)Cc2ccc(C)o2)nn1 | -10% | 1.32
O=C(Nc1c(F)cccc1Oc1ccccc1)[C@@H]1COCCO1 | -12% | 1.76
Cc1cc(=O)[nH]c(C)c1C(=O)NC(c1cnn(C)c1)[C@H]1C[C@H](O)C1 (some centres not stated) | 2% | -0.41
Cn1ncc2c1CCCC2NCC(c1ccccc1)C(C)(C)CO (configuration not stated) | -13% | 2.43
Cc1cc(C(=O)NCc2cncc(C3CC3)c2)n(C)n1 | -18% | 2.09
Clc1ccc([C@@H](NC2CCCCC2)c2ncon2)cc1 | -11% | 1.42
CC(C)NC(=O)N1CC(c2nc(-c3ccncc3)no2)C1 | -10% | 1.96
C[C@H](NC(=O)C1(C(F)(F)F)CCC1)c1ccc(Cl)cn1 | 7% | -0.99
COc1ccc(-c2nn(C(=O)OC(C)(C)C)c(C3CC3)c2N)cc1 | -4% | 0.5
COCC[C@H]1CN(C(=O)c2ccn(C)c2C)CCO1 | 5% | -0.67
CCCCOCC(=O)N1CCN(c2nncc3ccccc23)CC1 | -9% | 0.87
CC1CCN(C(=O)c2ccc(CN3C(=O)CNC3=O)cc2)C2CCCCC12 (configuration not stated) | -6% | 1.09
Cn1nc(-c2ccccc2NC(=O)c2cc(OCc3ccccc3)ncn2)ccc1=O | -9% | 1.72
CCCNC(=O)NCc1nnc(C(=O)Nc2ccc3c(c2)OCO3)s1 | 26% | -3.03
N#Cc1ccc(C(=O)N[C@H]2CCCN(CC(F)(F)F)C2)s1 | 15% | -1.98
O=C(NCc1ccco1)N[C@H](CO)Cc1c[nH]c2ccccc12 | 3% | -0.38
COc1ccc([C@H]2C[C@@H]2C(=O)N2CCOC(c3ncon3)C2)cc1 (some centres not stated) | -4% | 0.58
CCc1cnc(NCc2n[nH]c(=O)[nH]2)nc1 | -4% | 0.82
CC(C)COC(=O)NC[C@H]1CCN(C(=O)c2ccoc2)C[C@@H]1O | -7% | 0.8
CCOC(=O)c1cc(NC(=O)N2CCN(CC)CC2)c(C)nc1C | 11% | -1.27
CCN1c2cc(C(=O)Nc3ccc(Cl)cc3)ccc2C(=O)N2CCC[C@@H]21 | 10% | -1.27
Cn1cc2c(n1)CCC[C@@H]2NCc1cc(C(N)=O)c2n1CCCC2 | -11% | 1.75

Structure (SMILES) | % Inhibition | Z score
N#CC1(NC(=O)c2ccc3c(c2)OCO3)CCCCC1 | 3% | -0.67
O=S(=O)(CC1CCCC1(F)F)NC1COCc2ccccc21 (configuration not stated) | 2% | -0.31
CCOCc1nnc2n1CC(C)(C)CC2 | 3% | -0.43
O=C(c1cn[nH]c1)N1CCN(c2ccccn2)CC1 | 15% | -1.98
CCc1nc(CN2CCC[C@@]3(CO)CN(c4cnccn4)CC[C@H]23)no1 | -1% | 0.22
C[C@@H](CCc1cccn1C)NC(=O)NCCS(C)(=O)=O | -5% | 0.68
O=C(Nc1ccccc1)N1CCCN(c2nc3cc(Cl)ccc3n3cccc23)CC1 | 6% | -0.99
CN(Cc1cc(F)c(F)c(F)c1)C(=O)Nc1ccncc1F | -2% | 0.26
Cc1cc(C)c(CNCc2nc(-c3cccs3)n[nH]2)cc1C | -9% | 1.03
CCN1C[C@H](CN(C)C(=O)c2ccc(COC)cc2)Oc2ccccc21 | -1% | 0.21
C=C(C)CN1CCC(N(C)C(=O)OC(C)(C)C)CC1 | -8% | 1.11
CCCS(=O)(=O)NCCc1cccc(F)c1F | 4% | -0.69
CC(C)n1cc(Br)cc1C(=O)N[C@@H](C)CO | -9% | 0.94
O=C(NC1Cc2ccccc2C1)c1ccc([C@H]2CCCNC2)cc1 | -10% | 1.81
COCC[C@](C)(O)CNC(=O)c1ccsc1 | -7% | 0.77
C[C@@H](CCc1ccco1)n1cnc(-c2ccccc2)c1C1CC1 | -3% | 0.55
Cc1noc([C@]23CN(Cc4cccc(C(=O)O)c4)CC[C@H]2CN(Cc2ccccc2)C3)n1 | -6% | 0.83
CCN1CCN(CCC(=O)N2CCc3cccc(NC(=O)OC(C)(C)C)c32)CC1 | -5% | 0.87
Cc1ccc(C)c(NC[C@H]2CCCN2)c1 | -9% | 1.34
COc1cc(Cl)ccc1C(=O)N1CC(F)(F)C[C@H]1C(=O)N1CCc2ccccc2C1 | -16% | 2.71
